Data reported in the BET-seq Pho4 binding data (Le et al. 2018).
This is one part of the list. These are noisy estimates, calculated here from bound and input reads.

Each sequence was assayed against T1, Pho4 (S. cerevisiae) (UniProt P07270) (assay: relative binding free energy (BET-seq); higher = weaker binding). Details: reference: library average.
T1 sequence: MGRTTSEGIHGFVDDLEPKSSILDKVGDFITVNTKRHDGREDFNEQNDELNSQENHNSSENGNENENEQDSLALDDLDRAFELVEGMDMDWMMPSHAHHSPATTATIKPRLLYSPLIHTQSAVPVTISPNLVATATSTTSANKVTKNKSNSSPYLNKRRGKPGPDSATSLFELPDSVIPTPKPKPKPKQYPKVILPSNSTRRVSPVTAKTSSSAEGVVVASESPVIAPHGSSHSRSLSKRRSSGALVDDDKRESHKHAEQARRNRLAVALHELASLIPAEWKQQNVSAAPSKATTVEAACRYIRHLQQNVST

Sequence	relative binding free energy [kcal/mol]
TGGATCACGTGTTTTG	0.18
TAGTGCACGTGCAAGG	0.06
TCTGGCACGTGAGATT	0.18
TTGGCCACGTGATATT	0.15
CGAGTCACGTGTAGTT	0.07
ACTATCACGTGGTGTA	0.06
TAGGGCACGTGTGCGC	-0.23
TTTAGCACGTGGATCT	-0.05
TTTTACACGTGGTCGA	0.1
TAGCTCACGTGCTGTG	0.25
CTAAACACGTGTGTGG	-0.01
TACATCACGTGTGTGT	0.15
GTGTACACGTGAGCGG	0.23
TGGTTCACGTGGGCTT	0.19
TGTGCCACGTGGAATG	0
GCTTACACGTGGTAGG	0.05
ATAATCACGTGTTGAT	0.19
GTTGGCACGTGCCATG	-0.1
TGAAACACGTGGGTCT	-0.17
CGGACCACGTGTGGTG	0.02
ATAGTCACGTGGTGTG	-0.02
GTGGACACGTGAGTTG	0.28
TATGGCACGTGCGCTG	-0.11
ATGTACACGTGTTTAG	0.03
GGAGCCACGTGGGGCG	-0.18

Sequence	relative binding free energy [kcal/mol]
TTAAGCACGTGGGCGG	-0.21
GAGGTCACGTGTGAAT	0.32
AGGAACACGTGAGGGT	0.14
TCGGTCACGTGGCTGT	-0.01
TTGTTCACGTGGCTAG	0.26
GGGGCCACGTGGAAGA	0.11
AGGGTCACGTGCTCTG	0.03
TAGGGCACGTGGTAAA	-0.05
TGCTGCACGTGTCAGG	0.02
CGCAGCACGTGAGGTG	0.3
TTGAGCACGTGTGGTC	0.03
GGGTGCACGTGTGTAC	0
TGTGGCACGTGGGAGG	-0.18
GTACGCACGTGAGTTT	0.15
GGTATCACGTGGAGTC	0.14
TAAGACACGTGTCGGT	-0.02
ATGAACACGTGGTTTG	-0.09
ATCGGCACGTGGGATA	-0.2
ATGTTCACGTGTGTGC	0.27
AAATTCACGTGAGGGT	0.36
TGAGGCACGTGTCTGG	-0.04
GCGTTCACGTGAGGCG	0.48
TAAGGCACGTGGACGG	-0.09
TTAGCCACGTGTCGGT	0.12
GGAATCACGTGGCTTT	0.13

Sequence	relative binding free energy [kcal/mol]
CTAGTCACGTGGTTCG	0.2
ACCTTCACGTGTTGTG	0.23
AGTGGCACGTGTAGAC	0.11
ATTACCACGTGGTTAG	0.05
ATAGGCACGTGGTGGT	-0.11
AATATCACGTGTAATG	0.21
CTTTGCACGTGGTTTT	-0.05
AGGGTCACGTGTGGTC	0.19
AAGTGCACGTGTTTTT	-0.01
AGTGGCACGTGTAATT	0.1
GTGATCACGTGGGTCA	-0.22
GTGGTCACGTGGGGAC	0.09
CGTGCCACGTGTAGGT	-0.22
GCGTTCACGTGTTAAT	0.3
TGGTGCACGTGTTGTC	0.01
ACGATCACGTGGTTGG	0
TTTGTCACGTGTGGCG	0.2
GGATTCACGTGGGTTT	0.23
TTTTTCACGTGGAGAC	0.21
GCTCGCACGTGTGTTT	-0.07
TAGAGCACGTGTGCTG	-0.11
TCGCTCACGTGTTTGG	0.19
ATAGTCACGTGTGTCT	-0.04
TGAAGCACGTGTTTTA	-0.1
TTGTTCACGTGTAAAC	0.32

Sequence	relative binding free energy [kcal/mol]
TTAGCCACGTGGTCGG	-0.18
ATTTGCACGTGCTTTG	0.05
TGGCGCACGTGGGTAG	-0.26
TTGGGCACGTGTTTTC	0.02
AGGGTCACGTGTACGA	0.05
TAGATCACGTGGGCTA	0.01
TGGCACACGTGTATAG	0.21
TGTTTCACGTGCTTTG	0.22
TTGGGCACGTGATGGT	-0.04
TGAGACACGTGTTTAG	0.01
GTTTGCACGTGCGGTC	0.04
TTGATCACGTGGGTCA	-0.03
TCACGCACGTGTGGGG	-0.2
GATTTCACGTGTGGTT	0.34
TTAGTCACGTGAGTAA	0.14
CGTGGCACGTGTTATC	0.09
TTGGACACGTGTGACG	0.1
TGAGGCACGTGTCAGG	-0.16
GGGTTCACGTGTCAGT	0.36
TATGACACGTGGTGTG	-0.03
GTATGCACGTGGTTAG	-0.14
AGTCGCACGTGTGCGT	-0.03
AACTGCACGTGGTAGG	-0.03
GGAAACACGTGGTTAG	0.03
AAAGGCACGTGTAGCT	-0.06

Sequence	relative binding free energy [kcal/mol]
GGATTCACGTGGAAGA	0.51
GAATGCACGTGGTATA	-0.01
GTATTCACGTGAGGGG	0.35
TGGGTCACGTGGAACG	0.18
GGGGGCACGTGGAGGG	-0.13
TGCATCACGTGCGGTT	0.16
TTGTTCACGTGTACTT	0.24
AGTCGCACGTGTTGTT	-0.03
GGCGTCACGTGCGGTG	0.05
TGATTCACGTGATGCG	0.35
TGAGACACGTGGTAGT	-0.13
GGGTGCACGTGGTGGC	0.08
GTGGTCACGTGAAATG	0.43
CATTTCACGTGGTGGT	0.21
GGGTGCACGTGAGATA	0.23
TATATCACGTGGCTGG	0.03
TACTTCACGTGATTGG	0.24
TCAGACACGTGGGGCG	-0.02
TTCAGCACGTGCGGTG	-0.07
TCGGTCACGTGCTGGA	0
TGGCGCACGTGGGTTC	-0.31
TTTTTCACGTGGAAGA	0.32
GAATTCACGTGCGGTG	0.13
ATCTACACGTGGGGTG	-0.18
TGGGACACGTGTTAGG	0.03

Sequence	relative binding free energy [kcal/mol]
TTTGGCACGTGTCGTC	-0.03
ATTCGCACGTGGATGG	0.04
AGATTCACGTGGTCGG	0.15
GATGCCACGTGAAGGT	0.29
TTAGGCACGTGGTGAC	-0.17
CGGGTCACGTGGACGT	0.12
CTTGGCACGTGCGGCG	-0.22
GTATTCACGTGGCAGT	0.27
GGTGGCACGTGTACGT	0.08
TTATTCACGTGTAGTT	0.29
ACTGGCACGTGTAGGT	-0.02
GAGTACACGTGAGGGG	0.27
GTGCGCACGTGAATTG	0.14
GCCTACACGTGGGGGG	-0.07
TGGGACACGTGTGTAC	0.18
CGGTGCACGTGTTGGT	0
GGTGCCACGTGAGAGT	0.2
AATGGCACGTGTTAGT	-0.07
AGGTACACGTGCGTGT	-0.03
AAAGTCACGTGCAGGG	0.04
GAATTCACGTGTGCGT	0.3
